The supplement of paper PMC4604168 (melanoma cell lines)
The other results are listed elsewhere or left out. Repeats are few or missing, and single values can be far off.

Legend:
Assay in all cases: cell count relative to DMSO control; melanoma cells; higher = more viable cells
Conditions in all cases: library dose: low library concentration; 72 h
[1] = tested on: MZ2-MEL
[2] = tested on: MeWo
[3] = tested on: RPMI7951
[4] = tested on: RVH-421
[5] = tested on: SkMel28
[6] = tested on: SkMel2
[7] = tested on: SkMel30
[8] = tested on: UACC62
[9] = tested on: SkMel5
[10] = tested on: UACC257
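Also: cell number obtained by counting DAPI-stained nuclei in high-throughput microscope images with image analysis software, screen run in 1,536-well plates.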

Compound | cell count [1] [%] | cell count [2] [%] | cell count [3] [%] | cell count [4] [%] | cell count [5] [%] | cell count [6] [%] | cell count [7] [%] | cell count [8] [%] | cell count [9] [%] | cell count [10] [%]
CS(=O)(=O)CCNCc1ccc(-c2ccc3ncnc(Nc4ccc(OCc5cccc(F)c5)c(Cl)c4)c3c2)o1 [lapatinib] + C=CCNC1=C2C[C@@H](C)C[C@H](OC)[C@H](O)[C@@H](C)/C=C(\C)[C@H](OC(N)=O)[C@@H](OC)/C=C\C=C(/C)C(=O)NC(=CC1=O)C2=O [Tanespimycin] (first compound 0.8 µM, partner dose 0.002 µM) | 105 | 99.6 | 106 | 116 | 89 | 114 | 113 | 108 | – | –
CS(=O)(=O)CCNCc1ccc(-c2ccc3ncnc(Nc4ccc(OCc5cccc(F)c5)c(Cl)c4)c3c2)o1 [lapatinib] + Cc1nc(Nc2ncc(C(=O)Nc3c(C)cccc3Cl)s2)cc(N2CCN(CCO)CC2)n1 [dasatanib] (first compound 0.8 µM, partner dose 0.004 µM) | 80.9 | 95.9 | 78 | 83.3 | 85.7 | 92.8 | 106 | 72.5 | – | –
CN1CCN(c2ccc3nc(-c4c(N)c5c(F)cccc5[nH]c4=O)[nH]c3c2)CC1 [Dovitinib] + Cn1nnc2c(C(N)=O)ncn2c1=O [temozolomide] (first compound 0.1 µM, partner dose 2 µM) | 76.1 | 74.6 | 99.9 | 84.6 | 69.3 | 96.6 | 50.5 | 80.1 | – | –
C=CCNC1=C2C[C@@H](C)C[C@H](OC)[C@H](O)[C@@H](C)/C=C(\C)[C@H](OC(N)=O)[C@@H](OC)/C=C\C=C(/C)C(=O)NC(=CC1=O)C2=O [Tanespimycin] + Nc1cccc2c1CN(C1CCC(=O)NC1=O)C2=O [lenalidomide] (first compound 0.002 µM, partner dose 1 µM) | 101 | 105 | 82.2 | 89.3 | 84.7 | 100 | 97 | 96.1 | – | –
CN1CCN(c2ccc3nc(-c4c(N)c5c(F)cccc5[nH]c4=O)[nH]c3c2)CC1 [Dovitinib] + C#Cc1cccc(Nc2ncnc3cc(OCCOC)c(OCCOC)cc23)c1 [erlotinib] (first compound 0.1 µM, partner dose 0.8 µM) | 75.6 | 88.3 | 107 | 108 | 83.2 | 105 | 55.3 | 92.9 | – | –
CN1CCN(c2ccc3nc(-c4c(N)c5c(F)cccc5[nH]c4=O)[nH]c3c2)CC1 [Dovitinib] + OCc1c[nH]c2ccccc12 [Indole-3-carbinol] (first compound 0.1 µM, partner dose 0.8 µM) | 89.8 | 91.9 | 107 | 89.2 | 93.2 | 96.7 | 81.6 | 89 | – | –
CNC(=O)c1cc(Oc2ccc(NC(=O)Nc3ccc(Cl)c(C(F)(F)F)c3)cc2)ccn1 [sorafenib] + Cc1nc(Nc2ncc(C(=O)Nc3c(C)cccc3Cl)s2)cc(N2CCN(CCO)CC2)n1 [dasatanib] (first compound 0.4 µM, partner dose 0.004 µM) | 80.3 | 85.8 | 85.5 | 101 | 67.6 | 99.4 | 83.3 | 91.5 | – | –
CNC(=O)c1cc(Oc2ccc(NC(=O)Nc3ccc(Cl)c(C(F)(F)F)c3)cc2)ccn1 [sorafenib] + O=C(O)c1ccc2c(c1)nc(Nc1cccc(Cl)c1)c1ccncc12 [CX4945] (first compound 0.4 µM, partner dose 0.4 µM) | 88.2 | 98.1 | 103 | 91.2 | 99.4 | 89.2 | 103 | 103 | – | –
C=CCNC1=C2C[C@@H](C)C[C@H](OC)[C@H](O)[C@@H](C)/C=C(\C)[C@H](OC(N)=O)[C@@H](OC)/C=C\C=C(/C)C(=O)NC(=CC1=O)C2=O [Tanespimycin] + C[C@]1(c2nc3c(C(N)=O)cccc3[nH]2)CCCN1 [Veliparib] (first compound 0.002 µM, partner dose 1.4 µM) | 100 | 95 | 93.2 | 83.2 | 101 | 93.9 | 87.6 | 90.6 | – | –
CN1CCN(c2ccc3nc(-c4c(N)c5c(F)cccc5[nH]c4=O)[nH]c3c2)CC1 [Dovitinib] + O=C(O)c1ccc2c(c1)nc(Nc1cccc(Cl)c1)c1ccncc12 [CX4945] (first compound 0.1 µM, partner dose 0.4 µM) | 87.2 | 74.6 | 82.4 | 93.8 | 86.9 | 110 | 49.7 | 90.2 | – | –
CS(=O)(=O)CCNCc1ccc(-c2ccc3ncnc(Nc4ccc(OCc5cccc(F)c5)c(Cl)c4)c3c2)o1 [lapatinib] + Nc1ccn([C@@H]2O[C@H](CO)[C@@H](O)C2(F)F)c(=O)n1 [gemcitabine] (first compound 0.8 µM, partner dose 0.0004 µM) | 95.7 | 92.3 | 89.9 | 80.2 | 96 | 85 | 104 | 110 | – | –
CNC(=O)c1cc(Oc2ccc(NC(=O)Nc3ccc(Cl)c(C(F)(F)F)c3)cc2)ccn1 [sorafenib] + OCc1c[nH]c2ccccc12 [Indole-3-carbinol] (first compound 0.4 µM, partner dose 0.8 µM) | 79.2 | 85.7 | 92 | 89.3 | 96.2 | 108 | 112 | 99.4 | – | –
C=CCNC1=C2C[C@@H](C)C[C@H](OC)[C@H](O)[C@@H](C)/C=C(\C)[C@H](OC(N)=O)[C@@H](OC)/C=C\C=C(/C)C(=O)NC(=CC1=O)C2=O [Tanespimycin] + CC(=O)c1c(C)c2cnc(Nc3ccc(N4CCNCC4)cn3)nc2n(C2CCCC2)c1=O [palbociclib] (first compound 0.002 µM, partner dose 0.04 µM) | 81.9 | 70.3 | 75.5 | 63.7 | 54.3 | 79.1 | 70.9 | 75.3 | – | –
C=CCNC1=C2C[C@@H](C)C[C@H](OC)[C@H](O)[C@@H](C)/C=C(\C)[C@H](OC(N)=O)[C@@H](OC)/C=C\C=C(/C)C(=O)NC(=CC1=O)C2=O [Tanespimycin] + COc1ccc(-c2ccc3c(N4CCOCC4)nc(N4C[C@@H](C)O[C@@H](C)C4)nc3n2)cc1CO [KU0063794] (first compound 0.002 µM, partner dose 0.02 µM) | – | 99 | 83.1 | 93.7 | 104 | 90.3 | 96.3 | 102 | 115 | 118
C[C@@H](Oc1cc(-c2cnn(C3CCNCC3)c2)cnc1N)c1c(Cl)ccc(F)c1Cl [Crizotinib] + Nc1cccc2c1CN(C1CCC(=O)NC1=O)C2=O [lenalidomide] (first compound 0.2 µM, partner dose 1 µM) | 102 | 93.7 | 103 | 97.5 | 88.6 | 97.8 | 104 | 103 | – | –
C[C@@H](Oc1cc(-c2cnn(C3CCNCC3)c2)cnc1N)c1c(Cl)ccc(F)c1Cl [Crizotinib] + CO[C@H]1C[C@@H]2CC[C@@H](C)[C@@](O)(O2)C(=O)C(=O)N2CCCC[C@H]2C(=O)O[C@H]([C@H](C)C[C@@H]2CC[C@@H](OCCO)[C@H](OC)C2)CC(=O)[C@H](C)/C=C(\C)[C@@H](O)[C@@H](OC)C(=O)[C@H](C)C[C@H](C)/C=C/C=C/C=C/1C [everolimus] (first compound 0.2 µM, partner dose 0.02 µM) | 78.6 | 63 | 76.7 | 72.1 | 36.6 | – | 60.5 | 60.3 | – | –
C[C@@H](Oc1cc(-c2cnn(C3CCNCC3)c2)cnc1N)c1c(Cl)ccc(F)c1Cl [Crizotinib] + O=C(Nc1ccccc1)c1cc([N+](=O)[O-])ccc1Cl [GW9662] (first compound 0.2 µM, partner dose 2 µM) | – | 104 | 106 | 96.8 | 101 | 92.8 | 92.6 | 96 | 94.8 | 120
C[C@@H](Oc1cc(-c2cnn(C3CCNCC3)c2)cnc1N)c1c(Cl)ccc(F)c1Cl [Crizotinib] + CNC(=O)c1cc(Oc2ccc(NC(=O)Nc3ccc(Cl)c(C(F)(F)F)c3)cc2)ccn1 [sorafenib] (first compound 0.2 µM, partner dose 0.4 µM) | 88.3 | 93.5 | 90.8 | 82.6 | 88.4 | – | 82.7 | 94.8 | – | –
C[C@@H](Oc1cc(-c2cnn(C3CCNCC3)c2)cnc1N)c1c(Cl)ccc(F)c1Cl [Crizotinib] + C=CCNC1=C2C[C@@H](C)C[C@H](OC)[C@H](O)[C@@H](C)/C=C(\C)[C@H](OC(N)=O)[C@@H](OC)/C=C\C=C(/C)C(=O)NC(=CC1=O)C2=O [Tanespimycin] (first compound 0.2 µM, partner dose 0.002 µM) | – | 100 | 100 | 88.6 | 101 | 103 | 109 | 106 | – | –
CN1CCN(c2ccc3nc(-c4c(N)c5c(F)cccc5[nH]c4=O)[nH]c3c2)CC1 [Dovitinib] + Cn1c(Nc2ccc(C(F)(F)F)cc2)nc2cc(Oc3ccnc(-c4ncc(C(F)(F)F)[nH]4)c3)ccc21 [CHIR265] (first compound 0.1 µM, partner dose 0.08 µM) | 71.1 | 76.7 | 61.3 | 70 | 56.7 | 85.4 | 52.1 | 65.9 | – | –
CN1CCN(c2ccc3nc(-c4c(N)c5c(F)cccc5[nH]c4=O)[nH]c3c2)CC1 [Dovitinib] + Nc1cccc2c1CN(C1CCC(=O)NC1=O)C2=O [lenalidomide] (first compound 0.1 µM, partner dose 1 µM) | 88.4 | 87 | 106 | 119 | 105 | 104 | 74.4 | 98.8 | – | –
